About 2,200 (0.71%) of roughly 310,000 compounds showed an effect of 50% or more. Effects have a minus sign here. The list shows a part of the results.
What follows are compounds tested against human ether-à-go-go-related gene (hERG) potassium channel (human, UniProt Q12809) (assay: primary screen, population patch clamp on CHO cells stably expressing hERG).
Sequence of human ether-à-go-go-related gene (hERG) potassium channel (Q12809 whole entry, looked up): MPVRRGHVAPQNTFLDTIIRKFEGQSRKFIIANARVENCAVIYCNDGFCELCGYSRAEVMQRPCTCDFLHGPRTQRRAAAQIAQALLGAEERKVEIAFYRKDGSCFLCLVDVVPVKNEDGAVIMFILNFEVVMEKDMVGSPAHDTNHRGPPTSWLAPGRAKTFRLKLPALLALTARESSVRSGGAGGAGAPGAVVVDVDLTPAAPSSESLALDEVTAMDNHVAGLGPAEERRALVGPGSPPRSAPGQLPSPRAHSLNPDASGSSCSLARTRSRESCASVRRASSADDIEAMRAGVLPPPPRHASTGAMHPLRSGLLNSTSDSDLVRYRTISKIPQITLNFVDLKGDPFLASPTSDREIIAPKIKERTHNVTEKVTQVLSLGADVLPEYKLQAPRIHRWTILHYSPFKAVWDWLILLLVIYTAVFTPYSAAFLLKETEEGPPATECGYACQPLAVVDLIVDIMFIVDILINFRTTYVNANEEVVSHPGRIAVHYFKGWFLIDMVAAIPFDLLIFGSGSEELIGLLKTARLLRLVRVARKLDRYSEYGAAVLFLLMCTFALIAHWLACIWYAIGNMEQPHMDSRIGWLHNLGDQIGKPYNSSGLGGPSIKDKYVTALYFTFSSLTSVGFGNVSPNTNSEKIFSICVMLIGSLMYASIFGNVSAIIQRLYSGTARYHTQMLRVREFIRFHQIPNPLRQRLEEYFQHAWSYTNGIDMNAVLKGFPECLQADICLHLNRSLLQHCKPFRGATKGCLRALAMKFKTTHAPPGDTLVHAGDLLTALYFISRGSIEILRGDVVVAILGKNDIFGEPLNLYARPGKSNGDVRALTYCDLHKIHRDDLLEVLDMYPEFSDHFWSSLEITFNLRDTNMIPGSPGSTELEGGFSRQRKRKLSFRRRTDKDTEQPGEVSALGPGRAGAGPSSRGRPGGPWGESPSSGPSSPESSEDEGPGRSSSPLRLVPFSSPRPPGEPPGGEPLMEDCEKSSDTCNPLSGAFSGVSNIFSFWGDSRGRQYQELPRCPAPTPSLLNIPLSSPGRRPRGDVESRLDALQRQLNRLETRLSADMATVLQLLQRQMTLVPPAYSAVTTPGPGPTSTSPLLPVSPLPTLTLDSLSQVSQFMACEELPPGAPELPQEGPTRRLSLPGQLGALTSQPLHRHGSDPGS

Row | Compound | hERG current change (%, negative = inhibition) at 1uM
1 | O=C(NCCc1ccccc1)N1CCCC(CNS(=O)(=O)Cc2ccccc2)C1 (stereo not shown) | 8.57%
2 | CC1CCCCN1S(=O)(=O)c1ccc2[nH]c(=O)cc(C(=O)NCCCN3CCCCCC3)c2c1 (stereo not shown) | 18%
3 | COc1ccc(NC(=O)c2ccc(-c3ccc(-c4noc(C)n4)cc3C)cc2)cc1N1CCN(C)CC1.Cl | -5.02%
4 | Cc1cc(C)c(S(=O)(=O)NCCc2ccccc2)c(C)c1 | 5.12%
5 | Cc1ccc(NC(=O)[C@H](NC(=O)[C@@H]2Cc3ccccc3CN2)c2ccccc2)cc1C | 7.14%
6 | O=C(CSc1nc(Nc2ccccc2)nc(N2CCOCC2)n1)NC1CCCCC1 | 8.9%
7 | COc1cccc(CNC(=O)CSCC(=O)Nc2ccc(C)cc2)c1 | 5.58%
8 | CCCN(c1ccccc1C(=O)O)S(=O)(=O)c1ccc2c(c1)n(C)c(=O)n2C | 13.3%
9 | O=C(CNC(=O)c1ccccc1Br)N/N=C/c1ccccc1O | 14.3%
10 | O=C(Nc1cccc(F)c1)N1CC=C(n2c(=O)[nH]c3ccccc32)CC1 | 11.4%
11 | Cl.FC(F)(F)c1ccc2c(c1)N(CCCN1CCN(CCCl)CC1)c1ccccc1S2 | -0.159%
12 | CCN1C(=O)C2(C(C#N)=C(N)Oc3n[nH]c(C(C)C)c32)c2ccccc21 (stereo not shown) | 9.08%
13 | Oc1ccc(-c2n[nH]c(=S)n2-c2ccc3c(c2)OCCO3)cc1 | 11.7%
14 | COc1ccc2c(c1)c(C(=O)CN1CCc3ccccc3C1)c(C)n2C | 8.04%
15 | CN(C)S(=O)(=O)Nc1cc(F)cc(F)c1 | 13.9%
16 | COc1ccccc1OCc1ccc(C(=O)NCC(C)C)o1 | -2.81%
17 | COc1ccc(/C=C/C(=O)c2ccc(O)cc2)cc1 | 12.3%
18 | COc1ccc(NC(=O)CN2C(=O)/C(=C3\SC(=S)N(C4CCS(=O)(=O)C4)C3=O)c3ccccc32)cc1 (stereo not shown) | 11.1%
19 | O=C(CSc1ccc(-c2ccccc2)nn1)N1CCN(c2ccccc2)CC1 | 12.7%
20 | Cc1cc(-n2ccnc2)n2c(nc3ccccc32)c1C#N | 15.3%
21 | CCN(Cc1ccc2c(c1)OCCO2)C(=O)CSc1nc(C)nc2sc(C)c(C)c12 | 0.539%
22 | O=C(NC1CCCCC1)C(c1ccc2ncccc2c1)N(Cc1ccc2c(c1)OCO2)C(=O)c1cccs1 (stereo not shown) | 2.23%

Row | Compound | hERG current change (%, negative = inhibition) at 1uM
23 | CC(C)(C)c1ccc(C(=O)NCCC(=O)NCc2cccs2)cc1 | 7.44%
24 | COc1ccc(C(CNC(=O)C(C)c2ccc3cc(OC)ccc3c2)N(C)C)cc1 (stereo not shown) | 12.7%
25 | CCCOC(=O)C1=C(C)NC2=C(C(=O)CCC2)C1c1cccc(OC)c1OC (stereo not shown) | -3.44%
26 | CC(C)CN(C(=O)c1ccco1)C1CCS(=O)(=O)C1 (stereo not shown) | 6.19%
27 | Cc1cc(OCC(=O)NNC(=O)CCc2ccccc2)ccc1Br | 15.6%
28 | O=C(Cc1ccccc1)Oc1ccc([N+](=O)[O-])cc1 | 16.7%
29 | CCOC(=O)C1=NNC(C(=O)c2ccc(C)cc2)C1c1ccc(OC)cc1 (stereo not shown) | -1.62%
30 | CCC(C)[C@H](NC(=O)NCc1ccccc1)C(=O)O (stereo partly shown) | 8.86%
31 | C=CCNC(=O)CC12CC3CC(C1)CC(CC(=O)NCC=C)(C3)C2 | 16.1%
32 | O=S(=O)(c1cccc(-n2cnnn2)c1)N1CCOCC1 | 6.79%
33 | O=C(Nc1ccccc1)c1ccc2c(c1)CCN2S(=O)(=O)c1ccccc1 | 11.5%
34 | Fc1ccc(NC(=S)NCCN2CCOCC2)c(F)c1F | 12.2%
35 | COC(=O)c1cccc(C23CC4(C2)[C@H](CN(Cc2cccnc2)[C@@H]4c2ccccc2)C3c2ccc(Cl)nc2)c1 (stereo partly shown) | 6.68%
36 | O=C(NCCCc1ccccc1)C1CCC(=O)N(CCc2ccc(Cl)cc2)C1 (stereo not shown) | -62.2%
37 | COc1ccc(CNC(=O)c2cccc(N(C)C)c2)cc1 | 8.92%
38 | Cc1ccc(CNC(=O)C2CCN(S(=O)(=O)c3cccs3)CC2)o1 | -10.1%
39 | Cc1ccc(C(=O)N2CCN(c3ccc(NC(=O)c4cccnc4)cc3)CC2)cc1 | -11.3%
40 | Cc1cc(C)n2c(Nc3ccc4c(c3)OCCO4)c(-c3ccc(C)o3)nc2n1 | 5.63%
41 | CCCC1=NN(c2ccc([N+](=O)[O-])cc2)C(=O)/C1=C/N(C)C | 6.46%
42 | Cc1cc(C)cc(NC(=O)CSc2nnc(-c3ccccc3C)o2)c1 | -5.13%
43 | CC1=NN2C(=N)/C(=C\c3cc(C)n(-c4ccc(C)cc4)c3C)C(=O)N=C2S1 | 7.02%

Source: PMC4336329 (PLoS ONE, 2015)
